# In all, about 220,000 compounds went through this assay and about 16,000 (7.3%) were called active. Inconclusive means that the source gave no clear call. Such entries were picked first, then a sample of the others. Calls come from the whole dose curve; as a rule, active = well fitted inhibition curve with a large enough effect (not every such curve was filed as active); inconclusive = small, poorly fitted or top-dose-only effect, or another doubt; inactive = no such curve, though single readings can be large or run the other way. Potencies of inconclusive entries are left out as doubtful fits.
# Biological target: Aldehyde dehydrogenase 1A1 (Homo sapiens) (UniProt P00352)
# UniProt P00352, sequence (P00352 whole entry, looked up): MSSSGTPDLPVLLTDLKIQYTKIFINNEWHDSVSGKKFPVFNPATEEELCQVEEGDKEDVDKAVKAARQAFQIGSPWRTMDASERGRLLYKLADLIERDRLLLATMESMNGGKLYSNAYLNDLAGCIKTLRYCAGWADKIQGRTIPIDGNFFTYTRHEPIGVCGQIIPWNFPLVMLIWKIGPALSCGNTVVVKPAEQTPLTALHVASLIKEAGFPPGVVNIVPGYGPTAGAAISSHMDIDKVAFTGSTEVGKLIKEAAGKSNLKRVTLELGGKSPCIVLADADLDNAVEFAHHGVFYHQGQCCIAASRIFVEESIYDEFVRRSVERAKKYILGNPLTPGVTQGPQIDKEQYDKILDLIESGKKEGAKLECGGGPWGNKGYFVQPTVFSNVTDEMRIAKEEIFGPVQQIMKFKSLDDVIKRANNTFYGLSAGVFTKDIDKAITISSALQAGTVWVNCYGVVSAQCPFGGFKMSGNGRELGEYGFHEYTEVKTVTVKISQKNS
# Test: qHTS Assay for Inhibitors of Aldehyde Dehydrogenase 1 (ALDH1A1)
# Settings: Purified ALDH1A1, NADH fluorescence, propionaldehyde substrate; series mostly up to 75.3 µM
# Potency is the fitted concentration of half-maximal effect; tags give direction and shape of the fitted curve.
row,Compound,Potency
1,Cn1cc2ccc(N)cc2n1,"inconclusive [inhibitor, partial curve]"
2,CCCc1cnc(N2CCN(S(C)(=O)=O)CC2)nc1,inactive
3,Cc1c(N=C2N=C(NC(=O)c3cccs3)c3ccccc32)c(=O)n(-c2ccccc2)n1C,"inconclusive [inhibitor, partial curve]"
4,Cc1cc(C)cc(C(=O)NCC(=O)OCC(=O)N2CCCCC2)c1,"inconclusive [inhibitor, single point]"
5,N=c1sccn1CC(=O)Nc1ccc(S(N)(=O)=O)cc1,active: 7.08 µM
6,O=C(C1=C[C@H](c2ccc(C(F)(F)F)cc2)C[C@H](OCCCCO)O1)N1CCOCC1,inactive
7,CCn1c2ccccc2c2nnc(SCC(=O)N(C)C3CCS(=O)(=O)C3)nc21 (stereo not given),"inconclusive [inhibitor, single point]"
8,O=C(NCc1ccco1)c1cc2nc(C3CC3)cc(C(F)(F)F)n2n1,"inconclusive [inhibitor, single point]"
9,c1cncc(C(c2nnnn2C2CCCCC2)N2CCCCC2)c1 (stereo not given),"inconclusive [inhibitor, single point]"
10,CC(C)NC(=O)CC(=O)N/N=C/c1ccc(Br)cc1,inactive
11,COc1ccc(N2CCN(C(=O)CNS(=O)(=O)c3ccc(C)c(C)c3)CC2)cc1,"inconclusive [inhibitor, single point]"
12,CS(=O)(=O)c1cc([N+](=O)[O-])c(Sc2nc3ccccc3[nH]2)c([N+](=O)[O-])c1,active: 8.91 µM
13,O=c1c2c3nc4ccccc4nc3n(Cc3ccccc3)c2ncn1Cc1ccco1,"inconclusive [inhibitor, partial curve]"
14,O=C(Nc1ccc2c(c1)OCO2)C1CCCN1C(=O)Nc1ccccc1F (stereo not given),"inconclusive [inhibitor, single point]"
15,O=C(OCc1cccnc1)C1=Cc2ccccc2OC1,"inconclusive [inhibitor, single point]"
16,Cc1ccc(NC(=O)Cn2cccc2)c(Br)c1,inactive
17,CCOC(=O)c1sc(Nc2nc3c(F)cccc3s2)cc1C,"inconclusive [inhibitor, single point]"
18,O=S(=O)(ON(c1ccccc1)S(=O)(=O)c1ccccc1)c1ccccc1,"inconclusive [inhibitor, single point]"
19,O=c1nc2n(c3ccc([N+](=O)[O-])cc13)CCCCC2,inactive
20,Cn1c(O)c(N=Nc2ccc(F)cc2)c2ccccc21,"inconclusive [inhibitor, single point]"
21,COc1ccc(-c2cc3ccccc3n2CC(O)CN2CCN(CCO)CC2)cc1 (stereo not given),"inconclusive [inhibitor, partial curve]"
22,O=C(c1cccs1)N(CCO)Cc1cc2cc3c(cc2[nH]c1=O)OCCO3,"inconclusive [inhibitor, single point]"
23,CC(C)C[C@@H](CC(=O)N[C@@H](CCC(=O)O)CC(=O)O)NC(=O)[C@@H]1CCCC[C@H]1NC(=O)C[C@@H](NC(=O)C[C@H](Cc1ccccc1)NC(=O)[C@@H]1CNCC[C@H]1N)C(C)C,inactive
24,COc1ccc(-c2nc3ccccc3c(=O)n2NC(=O)Cc2ccccc2)cc1,"inconclusive [inhibitor, single point]"

row,Compound,Potency
1,CCn1c(=N)n(CC(=O)c2cccc([N+](=O)[O-])c2)c2ccccc21,inactive
2,C=CCOC(=O)NC(CC(=Nc1ccc(OC)cc1)C(=O)OC)c1ccccc1 (stereo not given),"inconclusive [inhibitor, partial curve]"
3,COC(=O)[C@@]1(Cc2ccc(F)cc2)[C@H]2c3cc(C(=O)N4CCCC4)n(CCCNc4ncc(C(F)(F)F)cc4Cl)c3C[C@H]2CN1C(=O)c1ccccc1,inactive
4,CCOC(=O)c1sc(SC)c2c1CCCC2=O,inactive
5,COc1ccc(/C=C(\NC(=O)c2ccccc2)C(=O)OCC2CCCN3CCCCC23)cc1OC (stereo not given),inactive
6,COc1ncc2nc(-c3ccccc3)c(=O)n(C3CC3)c2n1,"inconclusive [inhibitor, partial curve]"
7,O=C(CSc1ncn[nH]1)CSc1ncn[nH]1,inactive
8,COc1cc(/C=N/Nc2ccc3ccccc3c2)ccc1OC(=O)c1ccco1,"inconclusive [inhibitor, single point]"
9,CCOC(=O)c1sc(C)c(C(=O)NCC(C)(C)CN(C)C)c1N,"inconclusive [inhibitor, single point]"
10,CCCCNC(=O)NS(=O)(=O)c1ccc(NS(=O)(=O)c2ccccc2)cc1,inactive
11,C/C(=N\N1CCN(Cc2ccc(C)cc2)CC1)c1ccco1,inactive
12,Cn1c(=O)c2c(nc(CN3CCc4ccccc4C3)n2CCCO)n(C)c1=O,"inconclusive [inhibitor, single point]"
13,COc1ccc(CCN(Cc2cc3cc(C)cc(C)c3nc2Cl)C(=O)C2CC2)cc1,inactive
14,CS(=O)(=O)Nc1cccc(-c2nc(NCc3ccccc3)c3ccccc3n2)c1,active: 25.1 µM
15,COc1ccc(Oc2ccc(N/C=C/C(=O)C(C)(C)C)cc2)cc1,"inconclusive [inhibitor, full curve, poor fit]"
16,Cc1cccc(NC(=S)NNC(=O)c2nn(C)cc2Cl)c1,"inconclusive [inhibitor, single point]"
17,CC1=NN(Cc2ccccc2)C(=O)C1C(c1ccccc1)C(C#N)C#N (stereo not given),"inconclusive [inhibitor, partial curve, poor fit]"
18,O=C(c1cc2cc(C(F)(F)F)ccc2s1)N1CCOCC1,inactive
19,CC1CCCN(CCC(=O)c2ccc(Br)cc2)C1 (stereo not given),active: 0.126 µM
20,CCN(CC)C(=O)CSc1nnc(-c2cc(-c3ccc(Cl)cc3)nc3ccccc23)o1,"inconclusive [inhibitor, partial curve]"
21,O=C1C2C3C=CC([C@@H]2C(=O)N1C1CCCCC1)[C@H]1C(=O)N(C2CCCCC2)C(=O)C31 (stereo not given in full),active: 1.41 µM
22,Cc1ccc2nc3c(cc2c1)CN(Cc1ccco1)C(=NCC1CCCO1)S3 (stereo not given),"inconclusive [inhibitor, single point]"
23,O=C(Nc1nc(-c2ccc(S(=O)(=O)N3CCCC3)cc2)cs1)C1COc2ccccc2O1 (stereo not given),"inconclusive [inhibitor, partial curve]"
24,CC(/C=C1\SC(=S)N(C(C(=O)O)C(C)C)C1=O)=C\c1ccccc1 (stereo not given),"inconclusive [inhibitor, single point]"

row,Compound,Potency
1,CSc1nc2ccc(S(=O)(=O)Nc3c(C)n(C)n(-c4ccccc4)c3=O)cc2s1,"inconclusive [inhibitor, single point]"
2,O=C(NCC(c1cccnc1)N1CCN(c2ccc(F)cc2)CC1)c1ccc(F)cc1 (stereo not given),active: 31.6 µM
3,CCCOc1ccc(/C=N/Nc2ccc(C(=O)O)cc2)c(OCCC)c1,"inconclusive [inhibitor, partial curve]"
4,CCOC(=O)Cn1c(=O)oc2cc(S(=O)(=O)N(C)Cc3ccco3)ccc21,active: 15 µM
5,COc1ccccc1C(=O)NCC(=O)N/N=C/c1cn[nH]c1-c1ccccc1,inactive
6,COC(=O)c1cc2c(-c3ccccc3)cc3ccccn3c-2c1C(=O)OC,"inconclusive [inhibitor, single point]"
7,CCOC(=O)Cc1c(C)nc2c(-c3ccc(Cl)cc3)c[nH]n2c1=O,"inconclusive [inhibitor, single point]"
8,Cc1ccc(S(=O)(=O)NCCCCCC(=O)NC(C)(C)CO)cc1,active: 7.94 µM
9,CC(=O)Nc1ccc(S(=O)(=O)N2CCN(C)CC2)cc1,inactive
10,CCOC(=O)c1c(NC(=O)C(C)NCc2ccco2)sc2c1CCC(C)C2 (stereo not given),"inconclusive [inhibitor, partial curve]"
11,O=C(OCc1ccc2c(c1)OCO2)c1ccc(S(=O)(=O)N2CCCC2)cc1,"inconclusive [inhibitor, single point]"
12,NS(=O)(=O)c1ccc(NC(=O)/C=C/c2cn(-c3ccccc3)nc2-c2cccc(Cl)c2)cc1,"inconclusive [inhibitor, partial curve]"
13,O=C(NC1CCCCCC1)c1cc(S(=O)(=O)N2CCC3(CC2)OCCO3)ccc1F,"inconclusive [inhibitor, single point]"
14,CCN1C(=O)c2cccc3c(S(=O)(=O)Nc4c(C)n(C)n(-c5ccccc5)c4=O)ccc1c23,active: 14.1 µM
15,CC(C)C(=O)N1CCN(c2ccc(NC(=O)c3ccc(Br)o3)cc2)CC1,inactive
16,C=C(Cl)COc1ccc2c(C)cc(=O)oc2c1,"inconclusive [inhibitor, partial curve]"
17,CCCCCC(=O)Nc1nc(C)c(-c2csc(Nc3ccccc3OCC)n2)s1,"inconclusive [inhibitor, single point]"
18,CC(NC(=S)Nc1ccc([N+](=O)[O-])cc1)c1ccncc1 (stereo not given),active: 20 µM
19,CC(NC(=O)CCc1nnc(CCCc2ccccc2)o1)c1ccccc1 (stereo not given),inactive
20,CCc1c(C)nc(Nc2nc(C)c3ccc(OC)cc3n2)[nH]c1=O,active: 2.24 µM
21,Cc1sc2nc(SCC(=O)C(C)(C)C)n(Cc3ccco3)c(=O)c2c1C,"inconclusive [inhibitor, partial curve, poor fit]"
22,O=C(c1ccc(-c2ccccc2)cc1)N1CCN(c2ncccn2)CC1,"inconclusive [inhibitor, single point]"

# From PubChem BioAssay AID1030 (National Center for Advancing Translational Sciences (NCATS), 2008)
